According to PubChem BioAssay AID1345083 (National Center for Advancing Translational Sciences (NCATS), 2018):
Out of some 94,000 compounds screened, about 6,200 (6.6%) were called active. The shares of active, inactive and inconclusive entries below differ from those in the screen. The call rests on the fitted dose curve; in most records, active means well fitted inhibition curve with a large enough effect; inconclusive means small, poorly fitted or top-dose-only effect; inactive means flat fitted curve, though single readings scatter. Potencies beside an inconclusive call are fits to weak or partial responses and may not hold up.
On the % scale 0 is the no-effect control and ±100 the full control effect; potency means the concentration at half of the fitted maximal effect; tags describe the fitted curve by direction and shape.

Test: Cytotoxic Profiling in HEK 293 Cell Line of Diverse Libraries Using Quantitative High-Throughput Screening; further: nearly all actives have a fitted effect of over 60% in size
Conditions: HEK 293 viability, ATP luminescence (CellTiter-Glo), 48-72 h; activity change, negative = cytotoxicity: at 115 µM (top of the series) unless noted; series mostly up to 115 µM
Method in brief: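 Cells seeded first (HEK 293, 250 cells/well), then compound added by pintool. Incubation ran 48 or 72 hr at 37 degree Celsius. CellTiter-Glo was added and luminescence imaged after 10 min at room temperature.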
For `CC(C)(C)c1cc(C[C@H]2CNCC[C@H]2CC(=O)N2CCCCC2)no1`, the Potency was inconclusive: 126 µM [inhibitor, partial curve, poor fit].
With `COCCN1CCOc2nc(-c3cccc(OC(F)(F)F)c3)ncc2C1=O` the Potency was inconclusive: 100 µM [inhibitor, partial curve].
With `Cc1ccc(CN2C(=O)COC[C@H]2C(=O)Nc2cccc(C)c2)cc1` the “outcome” value was “inactive”.
In the case of `O=C(NCCc1ccccc1)C1CCc2nnc(-c3cccc(C(F)(F)F)c3)n21` (stereo unspecified), the “activity change, negative = cytotoxicity” value is reported as inactive: -28.5%.
In the case of `CC(C)N1C(=O)CO[C@H]2CN(C(=O)c3ccncc3)C[C@H]21`, the “activity change, negative = cytotoxicity” value is reported as inactive: 2.09% [at 230 µM].
In the case of `O=C(NCCc1ccccc1)C1CCCN(Cc2cccc(-c3cccs3)c2)C1` (stereo unspecified), the Potency is reported as inconclusive: 50.1 µM [inhibitor, partial curve, poor fit].
In the case of `CCN1c2cc(C(=O)Nc3ccc(F)c(Cl)c3)ccc2C(=O)N2CCCCCC21` (stereo unspecified), the Potency is reported as active: 15.8 µM.
For `COc1ccc(F)cc1-c1cccc(C(=O)NCCNC(=O)c2ccccc2F)c1`, the Potency was active: 39.8 µM.
With `C[C@@H](NC(=O)C[C@@H]1c2nc(NC(=O)CC(C)(C)C)sc2C[C@@H]2[C@](C)(CO)[C@H](O)CC[C@]21C)c1ccccc1` the Potency was active: 39.8 µM.
For `O=C(CN1C(=O)NC(c2ccc(Cl)cc2)C2=C1COC2=O)Nc1ccc(Br)cc1F` (stereo unspecified), the Potency was active: 35.5 µM.
For `COc1ccc(NC(=O)C2=NO[C@@H]3CN(c4ccccc4)C[C@H]23)cn1`, the Potency was inconclusive: 44.7 µM [inhibitor, full curve].
With `COCCCNC(=O)CCC1CCN(S(=O)(=O)c2ccccc2C)CC1` the “activity change, negative = cytotoxicity” value was inactive: -14%.
With `COc1ccccc1-c1cccc(CN2CCC(NC(=O)c3ccc(F)cc3)CC2)c1` the Potency was active: 39.8 µM.
For `Cc1cccc(N2CCN(C(=O)CC3CCCCN(Cc4ccccc4)C3=O)CC2)c1` (stereo unspecified), the Potency was inconclusive: 31.6 µM [inhibitor, partial curve, poor fit].
In the case of `COc1cccc(C(=O)N2CCN(c3nccc(Nc4ccccc4OC)n3)CC2)c1`, the “activity change, negative = cytotoxicity” value is reported as inactive: -63.1%.
In the case of `C[C@H]1[C@@H]2[C@H]3OC(=O)[C@@H](C)[C@@H]3CC[C@@]2(C)CC[C@@H]1NC(=O)c1ccccn1`, the Potency is reported as active: 100 µM.
With `Cc1ccc2c(n1)N(C)[C@H](CO)CCN(Cc1ccc(C(F)(F)F)cc1)C2` the Potency was active: 35.5 µM.
For `Cc1cc(Cl)ccc1-c1ccc(C=O)cc1`, the “activity change, negative = cytotoxicity” value was inactive: -19.5% [at 172 µM].
In the case of `O=c1n(CCN2CCCC(N[S+](=O)([O-])c3cccc(C(F)(F)F)c3)C2)nc2n1CCCC2` (stereo unspecified), the “activity change, negative = cytotoxicity” value is reported as inactive: -1.98%.
With `O[C@H]1[C@H](NCc2ccccn2)[C@H]2CO[C@H](O2)[C@@H]1N1CCC(Cc2ccccc2)CC1` the Potency was inconclusive: 126 µM [inhibitor, single point].
With `COc1ccc2nc(C[C@@H]3C[C@@H](C(C)C)[C@H](CNCc4ccccc4OC)C=C3C)[nH]c2c1` the Potency was active: 20 µM.
In the case of `O=C(c1cc(-c2ccc(F)cc2)nc2ccccc12)N1CCC(Cc2nncn2CC2CC2)CC1`, the Potency is reported as active: 44.7 µM.
In the case of `Cc1nnc2ccc(N3CCN(S(=O)(=O)c4cccc(C(F)(F)F)c4)CC3)nn12`, the “activity change, negative = cytotoxicity” value is reported as inactive: -27.2%.
In the case of `CCN(Cc1ccncc1)C(=O)CC1C(=O)NCCN1CCc1ccccc1` (stereo unspecified), the Potency is reported as inconclusive: 100 µM [inhibitor, single point].
In the case of `Cc1ccccc1N1CCN(c2ncccc2CNC(C)Cn2cncn2)CC1` (stereo unspecified), the Potency is reported as inconclusive: 31.6 µM [inhibitor, full curve, poor fit].
With `O=C(NC1CCCc2c1[nH]c1ccccc21)c1ccccn1` (stereo unspecified) the Potency was inconclusive: 2.82 µM [inhibitor, full curve, poor fit].
For `O=C(NCc1ccc(F)cc1)c1cc(-c2cccs2)c2cccn2n1`, the Potency was inconclusive: 22.4 µM [inhibitor, full curve, poor fit].
For `Cn1ncc2c(C(=O)Nc3cncnc3)cc(-c3ccc(Cl)cc3Cl)nc21`, the “activity change, negative = cytotoxicity” value was inactive: -9.57%.
With `CC(=O)N[C@@H]1[C@@H](NC(=O)Cc2cccs2)[C@H]2CCO[C@H]21` the “outcome” value was “inactive”.
In the case of `O=C(NC1CCN(c2cc(-c3ccc(F)cc3)[nH]n2)C1)c1ccc2[nH]ccc2c1` (stereo unspecified), the Potency is reported as inconclusive: 31.6 µM [inhibitor, partial curve].
For `CC1=C[C@@H](CNC(=O)Nc2ccc(F)cc2)[C@H](C(C)C)C[C@H]1Cc1nc2c(C)cccc2[nH]1`, the Potency was inconclusive: 31.6 µM [inhibitor, full curve, poor fit].
In the case of `O=C(NCc1ccccc1C(F)(F)F)c1cc2n(n1)CC(c1ccc3c(c1)OCO3)OC2` (stereo unspecified), the Potency is reported as inconclusive: 44.7 µM [inhibitor, partial curve, poor fit].
In the case of `O=C(NC1CCCN(c2cc(-c3ccc(F)cc3)[nH]n2)C1)c1c[nH]c2ccccc12` (stereo unspecified), the Potency is reported as inconclusive: 50.1 µM [inhibitor, partial curve, poor fit].
In the case of `Cc1ccc(NC(=O)c2cc3c(N4CCSCC4)nc(C)cn3n2)c(C)c1`, the Potency is reported as inconclusive: 89.1 µM [inhibitor, single point].
In the case of `CC(C)CC(=O)N1CCCC(Cc2nncn2C(C)C)C1` (stereo unspecified), the Potency is reported as inconclusive: 8.91 µM [inhibitor, full curve, poor fit].
With `COc1cccc(-c2ccc(CN3CCCC3C(=O)NC3CCCCC3)cc2)c1` (stereo unspecified) the Potency was active: 44.7 µM.
With `COc1cccc(-c2cccc(C(=O)N3CCCC3C(=O)NCc3ccc(F)cc3)c2)c1` (stereo unspecified) the Potency was inconclusive: 56.2 µM [inhibitor, partial curve, poor fit].
In the case of `Cc1cc(F)ccc1OCC(=O)c1ccc2c(c1)N(CC(=O)NC1CCCCC1)C(=O)CO2`, the “activity change, negative = cytotoxicity” value is reported as inactive: -29.6%.
For `O=C1[C@@H]2C[C@@H](CN2C(=O)c2ccccn2)Oc2ccccc2N1Cc1ccc(OC(F)(F)F)cc1`, the Potency was inconclusive: 79.4 µM [inhibitor, partial curve].
With `Cc1cc(C(=O)NCC2CC2)c2c(C3CCNC3)noc2n1` (stereo unspecified) the “outcome” value was “inactive”.
In the case of `CCn1ncc(N2CCCC(CC(=O)N3CCCCCC3)C2)cc1=O` (stereo unspecified), the activity change, negative = cytotoxicity is reported as inconclusive: -33.6% [inhibitor].
In the case of `Cc1oc(C(O)c2ccccc2)nc1C(=O)N1CCC(n2c(=O)[nH]c3ccccc32)CC1` (stereo unspecified), the Potency is reported as inconclusive: 100 µM [inhibitor, partial curve, poor fit].
For `Cn1ncc2c(C(=O)NCCc3ccccn3)cc(-c3ccc(F)cc3)nc21`, the Potency was inconclusive: 56.2 µM [inhibitor, partial curve, poor fit].
For `CNC(=O)CCn1ncc2cc(OCc3ccccc3-c3ccccc3COC)ccc21`, the Potency was active: 89.1 µM.
In the case of `Cc1ccc(-c2noc([C@@H]3C[C@@H](O)CN3Cc3nc4ccccc4n3C)n2)cc1F`, the “activity change, negative = cytotoxicity” value is reported as inactive: -6.51% [at 172 µM].
With `Fc1ccc(CN2CC[C@H](c3nc4ccc(C(F)(F)F)cc4[nH]3)C2)cc1F` the Potency was active: 10 µM.
With `Cc1nc(CCN(C)c2nc(C3CCCC3)nc3c2cnn3C)no1` the Potency was inconclusive: 44.7 µM [inhibitor, partial curve].
For `C[C@H]1CN(S(=O)(=O)c2cccc(F)c2)C[C@@H]1c1nc(-c2ccccc2)no1`, the Potency was inconclusive: 56.2 µM [inhibitor, partial curve, poor fit].
With `CNC(=O)CCn1ncc2cc(OC3CCc4cccc(-c5ccncc5)c43)ccc21` (stereo unspecified) the Potency was active: 100 µM.
With `Cc1cc(=O)oc2cc(OCC(=O)NC3CCCc4c3[nH]c3ccccc43)ccc12` (stereo unspecified) the Potency was inconclusive: 17.8 µM [inhibitor, full curve, poor fit].
For `OCc1cccc(-c2ccc3ncc(Nc4cccnc4)n3n2)c1`, the “activity change, negative = cytotoxicity” value was inactive: -9.58% [at 172 µM].
In the case of `Cc1ccc(C(=O)N2CCCN(Cc3ccncc3)C(c3ccccc3)CC(=O)NCC2)s1` (stereo unspecified), the Potency is reported as inconclusive: 89.1 µM [inhibitor, single point].
For `CN1C[C@@H](NC(=O)c2cccs2)C[C@H]1c1nc(-c2ccc(F)cc2)no1`, the Potency was active: 89.1 µM.
In the case of `O=C1[C@@H]2C[C@@H](CN2C(=O)c2cccnc2)Oc2ccccc2N1Cc1ccc(OC(F)(F)F)cc1`, the Potency is reported as inconclusive: 89.1 µM [inhibitor, partial curve, poor fit].
With `COc1ccc(CC(=O)N2CCCN(c3cc(-c4ccccc4)[nH]n3)CC2)cc1OC` the Potency was inconclusive: 50.1 µM [inhibitor, partial curve, poor fit].
With `CC(C)NC(=O)N1CCN(C(=O)N2CCOCC2)[C@@H](C(=O)N[C@H](Cc2c[nH]c3ccccc23)C(N)=O)C1` the “outcome” value was “inactive”.
In the case of `COc1cccc(CCC(=O)N2CCC(c3nc(C4CCOCC4)no3)C2)c1` (stereo unspecified), the Potency is reported as inconclusive: 79.4 µM [inhibitor, single point].
With `O=C1c2cc(N3CCOCC3)nc(-c3ccc(F)cc3)c2CN1CC1CC1` the Potency was active: 100 µM.
With `Cn1nc(C2CCCN2)c2c(C(=O)N3CCC(F)CC3)cc(C3CC3)nc21` (stereo unspecified) the “outcome” value was “inactive”.
For `CCNC(=O)N1Cc2[nH]cnc2C[C@H]1c1nc(-c2ccc(OC(F)(F)F)cc2)no1`, the Potency was inconclusive: 35.5 µM [inhibitor, partial curve, poor fit].
For `O=C(CN1C(=O)NC(c2ccc(Cl)cc2)C2=C1COC2=O)Nc1ccccc1` (stereo unspecified), the Potency was inconclusive: 39.8 µM [inhibitor, partial curve, poor fit].
For `COc1ccc(-c2nc3cc(C)ccc3cc2CN2CCC[C@H]2C(N)=O)cc1OC`, the Potency was inconclusive: 15.8 µM [inhibitor, full curve, poor fit].
In the case of `CN1CCN(Cc2ccc(-c3ccc(C(C)(C)C#N)cc3)nc2)CC1`, the Potency is reported as inconclusive: 28.2 µM [inhibitor, full curve, poor fit].
With `C=CCNC(=O)c1cnn2cc(C)ccc12` the “activity change, negative = cytotoxicity” value was inactive: -6.2% [at 230 µM].
With `COc1ccc(CNc2cc3c(cn2)CN(C)CCN3C)cc1OC` the Potency was inconclusive: 100 µM [inhibitor, partial curve].
For `O=C(NC[C@H]1O[C@H](Cc2cc(-c3ccc(F)cc3)on2)CC[C@@H]1O)NC1CCCCC1`, the Potency was inconclusive: 63.1 µM [inhibitor, full curve, poor fit].
